Measured values as given in the BET-seq Pho4 binding data (Le et al. 2018).
This is one part of the list. Values were computed here from the reads of four pooled replicates and scatter widely.

biological target: T1, Pho4 (S. cerevisiae) (UniProt P07270); assay: relative binding free energy (BET-seq); higher = weaker binding; conditions: reference: library average
T1 sequence: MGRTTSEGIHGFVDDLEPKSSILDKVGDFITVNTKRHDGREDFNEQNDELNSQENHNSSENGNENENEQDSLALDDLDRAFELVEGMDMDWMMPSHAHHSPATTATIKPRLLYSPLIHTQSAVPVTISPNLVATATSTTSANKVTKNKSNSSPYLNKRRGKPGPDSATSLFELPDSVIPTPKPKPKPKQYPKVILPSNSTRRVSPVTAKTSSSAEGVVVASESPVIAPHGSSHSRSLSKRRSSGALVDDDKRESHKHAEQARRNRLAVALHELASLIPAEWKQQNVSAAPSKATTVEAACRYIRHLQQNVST

Sequence	relative binding free energy [kcal/mol]
TTGATCACGTGTTTGG	0.15
GGTACCACGTGTGTTG	-0.04
ATGCGCACGTGTCGGG	0.03
TTATTCACGTGCTGGG	0.28
TGTGCCACGTGGGAGA	-0.22
TCTCACACGTGGTGTG	0
GGCTGCACGTGTTGAT	0.14
TAGTCCACGTGGGGTT	-0.06
TCAGTCACGTGGTGGC	-0.04
ATCTGCACGTGGAGTT	0.03
TCGGGCACGTGTTTGG	0.01
TGGGTCACGTGTAGGT	0.17
AGGTACACGTGAGTTA	0.41
TGATCCACGTGGTGGT	-0.03
CGATGCACGTGTAGTT	0.13
GTAATCACGTGATGTA	0.28
GTGTGCACGTGGCATG	-0.2
TTTTTCACGTGAGAGG	0.47
TTCTTCACGTGTAAGA	0.35
CGAGACACGTGGGATG	-0.06
AGGTACACGTGTGCGG	-0.02
TCAATCACGTGTTGGA	0.26
TGTTACACGTGGGCTG	-0.12

Sequence	relative binding free energy [kcal/mol]
GCTAGCACGTGTGGGC	0.07
GGTTTCACGTGGTGGT	0.38
AACTTCACGTGTAGGG	0.17
CGTAGCACGTGTGTGT	-0.08
ATTTGCACGTGGATAG	0.06
GGTCTCACGTGAGTGT	0.34
GTTTTCACGTGAGAGT	0.61
ACGGGCACGTGGGGTT	-0.25
TTTAGCACGTGATAAG	-0.06
TTCGCCACGTGTGGTT	0.04
ATTATCACGTGTGATT	0.24
TGTTCCACGTGAATTA	0.43
TTCGACACGTGGGGTT	-0.04
TAATGCACGTGGGGAA	-0.15
GGTGGCACGTGAGGGC	0.14
TTGGCCACGTGTGTTA	0.09
ATTAGCACGTGGTTTC	-0.12
TGGGGCACGTGGGCTT	-0.16
TGAGTCACGTGGGCTA	-0.03
CGGTGCACGTGAAGGA	0.1
AGATGCACGTGTAGGC	-0.01
GTCGGCACGTGTTCGG	-0.15
GCTGGCACGTGGTGGC	-0.06

Sequence	relative binding free energy [kcal/mol]
TTACGCACGTGTGAGA	0.17
GATAGCACGTGATTTG	0.05
TAGTTCACGTGGTTTG	0.33
TTAAACACGTGTAATT	0.09
AGGCTCACGTGGGGAT	0.06
GGTGTCACGTGAGATG	0.42
AGATTCACGTGTTCGG	0.23
GATAGCACGTGGGGGG	-0.17
CTTGCCACGTGTGTGT	-0.25
CTGGGCACGTGCGGGA	-0.15
ACTTTCACGTGTGTAA	0.2
GTTCGCACGTGTGGTT	0.09
TGGGACACGTGGGGTC	-0.11
CGTGTCACGTGTTTTT	0.12
TAGATCACGTGGGACT	0.1
GAGGGCACGTGAGGGA	0.13
ATTTGCACGTGATTAC	0.16
TCTGGCACGTGGCTTG	-0.09
GCGGTCACGTGGAGTA	0.12
CAGTACACGTGGTAGG	0
TACAGCACGTGGGCGG	-0.35
TGCGTCACGTGGAGTC	0.12
TTATGCACGTGGGGAT	-0.09

Sequence	relative binding free energy [kcal/mol]
TTAGGCACGTGTCGTT	0.01
GTTATCACGTGCGGTT	0.24
GTTCTCACGTGCTTGG	0.21
TGAAGCACGTGCGTGA	-0.07
TAGAACACGTGGGGTA	-0.12
AGTGTCACGTGGCGTC	-0.1
TTGGACACGTGGCGTC	-0.09
TTGGTCACGTGTCTGG	0.16
TGGTTCACGTGGGTCC	0.15
AGGAGCACGTGATCGG	-0.02
ATGTTCACGTGCAATT	0.22
TAGTGCACGTGAAGCG	0.3
TGTGGCACGTGCAGGT	-0.12
AACTTCACGTGGTTTT	0.21
TAGCACACGTGATGGG	0.25
GAATGCACGTGGTCAT	0.09
GGTAGCACGTGTCGAG	-0.03
TAACACACGTGGTGGG	-0.03
AATGGCACGTGTTAGC	-0.11
GGTGCCACGTGTGGCA	-0.02
TGAGTCACGTGCGGAG	-0.01
TGGCACACGTGGAGGG	0.03
GATGCCACGTGGTAGT	-0.03

Sequence	relative binding free energy [kcal/mol]
TTATGCACGTGGACGG	0.01
AGGCGCACGTGCGGTG	-0.05
ACTGGCACGTGGTAGA	-0.13
TATTGCACGTGGGTGC	-0.13
AGAGGCACGTGTTACG	-0.12
TGATGCACGTGTGGTT	0.04
TTATGCACGTGGTTGT	-0.01
ATTAACACGTGGTGTC	-0.12
TGAGACACGTGTAGTG	0.07
AACGTCACGTGTGGTA	0.14
TGGAACACGTGGTTCA	0.1
ACTTGCACGTGATTGG	0.16
TTGTACACGTGGGGGC	-0.13
ATGAGCACGTGTAGCG	-0.03
TGGCCCACGTGGGGGC	-0.33
GTTGGCACGTGACTAG	0.09
GATATCACGTGAGATG	0.4
GACTGCACGTGGTAGT	0.02
GTTGGCACGTGTTAGG	-0.02
TTATTCACGTGCAGTT	0.28
TGTTTCACGTGTATTT	0.25
ACGTGCACGTGAGGCT	0.16
TTCTTCACGTGTTGTG	0.23
